{"source": "paper PMC4336329", "about": "(PLoS ONE, 2015)", "note": "Out of some 310,000 compounds screened, about 2,200 (0.71%) showed an effect of 50% or more. Effects have a minus sign here. This is one part of the list.", "data": [{"biological_target": "human ether-à-go-go-related gene (hERG) potassium channel (human, UniProt Q12809)", "sequence (Q12809 whole entry, looked up)": "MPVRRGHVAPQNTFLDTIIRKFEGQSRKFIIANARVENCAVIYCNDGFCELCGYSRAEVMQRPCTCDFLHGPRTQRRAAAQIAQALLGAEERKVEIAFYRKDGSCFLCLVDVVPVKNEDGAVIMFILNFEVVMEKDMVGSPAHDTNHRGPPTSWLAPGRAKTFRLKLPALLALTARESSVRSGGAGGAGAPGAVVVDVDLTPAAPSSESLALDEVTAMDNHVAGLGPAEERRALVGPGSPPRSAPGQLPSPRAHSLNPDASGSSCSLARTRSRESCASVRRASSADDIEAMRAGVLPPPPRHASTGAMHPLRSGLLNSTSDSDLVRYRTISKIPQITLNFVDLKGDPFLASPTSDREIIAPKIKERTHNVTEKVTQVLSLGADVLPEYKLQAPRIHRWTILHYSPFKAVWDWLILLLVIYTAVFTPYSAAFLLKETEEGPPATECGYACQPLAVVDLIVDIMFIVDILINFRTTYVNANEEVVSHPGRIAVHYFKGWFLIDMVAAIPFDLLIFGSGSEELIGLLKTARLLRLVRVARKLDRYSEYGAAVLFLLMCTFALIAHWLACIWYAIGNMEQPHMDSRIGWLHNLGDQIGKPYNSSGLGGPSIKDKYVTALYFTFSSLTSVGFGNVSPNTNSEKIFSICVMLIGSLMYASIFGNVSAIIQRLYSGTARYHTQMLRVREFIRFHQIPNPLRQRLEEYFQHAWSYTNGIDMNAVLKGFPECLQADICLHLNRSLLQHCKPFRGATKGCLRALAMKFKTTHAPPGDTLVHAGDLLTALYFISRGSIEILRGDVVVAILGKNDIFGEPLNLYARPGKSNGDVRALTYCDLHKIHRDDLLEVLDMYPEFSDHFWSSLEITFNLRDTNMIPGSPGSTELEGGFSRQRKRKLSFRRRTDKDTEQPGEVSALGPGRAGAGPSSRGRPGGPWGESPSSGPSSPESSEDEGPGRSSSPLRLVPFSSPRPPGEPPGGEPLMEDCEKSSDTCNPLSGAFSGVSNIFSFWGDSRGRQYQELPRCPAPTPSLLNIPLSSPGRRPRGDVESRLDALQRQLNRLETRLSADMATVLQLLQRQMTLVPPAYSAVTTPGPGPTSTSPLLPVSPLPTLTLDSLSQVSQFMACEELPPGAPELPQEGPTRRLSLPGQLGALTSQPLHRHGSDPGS", "assay": "primary screen, population patch clamp on CHO cells stably expressing hERG", "units": {"hERG current change (%, negative = inhibition) at 1uM": "%"}, "values": [{"smiles": "CC1(C)Cc2nc3[nH]c(=S)[nH]c(=O)c3cc2CO1", "hERG current change (%, negative = inhibition) at 1uM": 12.8}, {"smiles": "Cn1nccc1/C=C(/C#N)S(=O)(=O)c1ccccc1", "hERG current change (%, negative = inhibition) at 1uM": 9.69}, {"smiles": "CCN(CC)CCCNC(=O)c1cc(Sc2nnc(C)s2)nc2ccccc12", "hERG current change (%, negative = inhibition) at 1uM": -3.89}, {"smiles": "Cc1nc(C(=O)Nc2cccc(Cl)c2)nn1-c1cc(OC(C)C)c(Cl)cc1Cl", "hERG current change (%, negative = inhibition) at 1uM": -2.08}, {"smiles": "COCCN(C(=O)c1ccco1)c1nc(-c2ccccc2)cs1", "hERG current change (%, negative = inhibition) at 1uM": 14.6}, {"smiles": "CCNC(=O)O/N=C(\\C)c1sc(-c2ccc(Cl)cc2)nc1C", "hERG current change (%, negative = inhibition) at 1uM": 8.65}, {"smiles": "CCC1(C)Cc2nc3[nH]c(=S)n(-c4ccc(C)cc4)c(=O)c3cc2CO1", "note": "(stereo not drawn)", "hERG current change (%, negative = inhibition) at 1uM": 3.23}, {"smiles": "Cc1c(C(=O)NCCCN2CCCC2=O)oc2ccc(S(=O)(=O)N3CCOCC3)cc12", "hERG current change (%, negative = inhibition) at 1uM": 3.33}, {"smiles": "COc1ccc(/C=C/C(=O)C(C)(C)C)cc1OC", "hERG current change (%, negative = inhibition) at 1uM": 3.36}, {"smiles": "O=C(Cn1nnc(-c2ccncc2)n1)N(C1CCCCC1)C1CCCCC1", "hERG current change (%, negative = inhibition) at 1uM": -0.302}, {"smiles": "COc1ccc(NC(=O)C(OC(=O)c2cnccn2)c2ccccc2)cc1Cl", "note": "(stereo not drawn)", "hERG current change (%, negative = inhibition) at 1uM": 11.7}, {"smiles": "O=C(NCCN1CCCCC1)c1ccc(=O)oc1", "hERG current change (%, negative = inhibition) at 1uM": -2.96}, {"smiles": "C=CCOCCN1C(=O)C2C(c3ccccc3)C=CC(c3ccccc3)C2C1=O", "note": "(stereo not drawn)", "hERG current change (%, negative = inhibition) at 1uM": 8.51}, {"smiles": "Cc1ccc(-c2nnc(SCC(=O)N3c4ccccc4NC(=O)C3(C)C)n2N)cc1", "hERG current change (%, negative = inhibition) at 1uM": 6.71}, {"smiles": "CCOC(=O)c1c(N)sc(C(=O)N2CCCCCC2)c1C", "hERG current change (%, negative = inhibition) at 1uM": 12.9}, {"smiles": "CCC(=O)Nc1sc(C(=O)Nc2ccccc2)c(C)c1C(=O)OC", "hERG current change (%, negative = inhibition) at 1uM": -0.0995}, {"smiles": "CCCCNCC#CCOc1cc(C)ccc1C(C)C.O=C(O)C(=O)O", "hERG current change (%, negative = inhibition) at 1uM": 27.6}, {"smiles": "C=CCc1c(C)nc(C)nc1N/N=C/c1ccc(F)cc1", "hERG current change (%, negative = inhibition) at 1uM": -1.18}, {"smiles": "Cc1cc(-c2ccccc2)nc(N2CCN(c3ccccn3)CC2)n1", "hERG current change (%, negative = inhibition) at 1uM": 3.43}, {"smiles": "CCOc1cc(C2Nc3ccccc3NC3=C2C(=O)CC(C)(C)C3)ccc1O", "note": "(stereo not drawn)", "hERG current change (%, negative = inhibition) at 1uM": 14.4}, {"smiles": "N=c1oc2ccccc2cc1C(=O)Nc1ccccc1", "hERG current change (%, negative = inhibition) at 1uM": 12.9}, {"smiles": "COc1ccc(/C=N/NC(=O)c2ccc(N)cc2)cc1Cn1cc([N+](=O)[O-])cn1", "hERG current change (%, negative = inhibition) at 1uM": -2.01}, {"smiles": "CC(=O)c1ccc(C(=O)Nc2sc3c(c2C(N)=O)CCN(Cc2ccccc2)C3)cc1.Cl", "hERG current change (%, negative = inhibition) at 1uM": 2.21}, {"smiles": "COC(=O)[C@H](CCSC)NC(=O)Cn1ccc(NC(=O)OCc2ccccc2)nc1=O", "hERG current change (%, negative = inhibition) at 1uM": 12.5}, {"smiles": "COc1ccccc1-c1c(C)nn2c(N)c(-c3ccccc3)cnc12", "hERG current change (%, negative = inhibition) at 1uM": 9.37}, {"smiles": "Cn1c(CN2CCN(C(=O)COc3ccccc3)CC2)nc2cc([N+](=O)[O-])ccc21", "hERG current change (%, negative = inhibition) at 1uM": -4.22}, {"smiles": "CC(=O)c1cccc([N+](=O)[O-])c1", "hERG current change (%, negative = inhibition) at 1uM": 21.3}, {"smiles": "Cc1ccc(N(C)S(=O)(=O)c2cccc(C(=O)Oc3ccc4c(C)cc(=O)oc4c3)c2)cc1", "hERG current change (%, negative = inhibition) at 1uM": 16.2}, {"smiles": "Cc1ccc(NC(=O)[C@H](C)NC(=O)C2CCN(C(=O)[C@@H](N)CC(C)C)CC2)cc1.Cl", "hERG current change (%, negative = inhibition) at 1uM": 8.63}, {"smiles": "O=C(Nc1cccc(C(=O)O)c1)/C(=C/c1ccccc1)NC(=O)c1cccc(Br)c1", "hERG current change (%, negative = inhibition) at 1uM": 7.88}, {"smiles": "O=C(CCl)N1c2ccccc2CCc2ccccc21", "hERG current change (%, negative = inhibition) at 1uM": 11.6}, {"smiles": "OC1CNCc2cc3c(cc21)OCCO3", "note": "(stereo not drawn)", "hERG current change (%, negative = inhibition) at 1uM": -3.48}, {"smiles": "CCOc1ccc(NC(=O)Nc2nnc(CC)s2)cc1", "hERG current change (%, negative = inhibition) at 1uM": 13.4}, {"smiles": "CCC(CC)C(=O)c1c[nH]c(C(=O)NCc2cccnc2)c1", "hERG current change (%, negative = inhibition) at 1uM": 0.619}, {"smiles": "CC(C)=C1C2CCC1C1C(=O)N(NC(=O)c3ccco3)C(=O)C21", "note": "(stereo not drawn)", "hERG current change (%, negative = inhibition) at 1uM": 6.47}, {"smiles": "O=C(c1ccc2nc(N3CCCCC3)sc2c1)N1CCN(Cc2ccc3c(c2)OCO3)CC1", "hERG current change (%, negative = inhibition) at 1uM": 16.9}, {"smiles": "FC(F)(F)c1cccc(N2CCN(C(=S)NCC3CCCO3)CC2)c1", "note": "(stereo not drawn)", "hERG current change (%, negative = inhibition) at 1uM": 4.59}, {"smiles": "Cc1cccc(N(C)C(=S)Oc2ccc3ccccc3c2)c1", "hERG current change (%, negative = inhibition) at 1uM": 18.5}, {"smiles": "CC1CCN(S(=O)(=O)c2cccc(S(=O)(=O)N3CCCC3)c2)CC1", "hERG current change (%, negative = inhibition) at 1uM": 2.54}, {"smiles": "O=C(N1CCOCC1)N1CCCN(C(=O)N2CCOCC2)CC1", "hERG current change (%, negative = inhibition) at 1uM": 1.45}, {"smiles": "O=c1[nH][nH]c(-c2ccccc2)c1C=Nc1ccccc1", "hERG current change (%, negative = inhibition) at 1uM": 8.22}, {"smiles": "O=C(Nc1nc2cc3c(cc2s1)OCCO3)C1=COCCO1", "hERG current change (%, negative = inhibition) at 1uM": 6.45}, {"smiles": "O=C(c1ccco1)N1CCN(C(=O)C2CCN(S(=O)(=O)c3cccc4nsnc34)CC2)CC1", "hERG current change (%, negative = inhibition) at 1uM": 0.0293}, {"smiles": "Cc1cc(C(=O)C[N+]2(C)CCOCC2)c(C)n1-c1ccc(Br)cc1.[Cl-]", "hERG current change (%, negative = inhibition) at 1uM": 11.4}, {"smiles": "CCCCOc1ncnc2c1[nH]c1ccc(OCC)cc12", "hERG current change (%, negative = inhibition) at 1uM": 6.91}]}]}
